Measured values as given in publication PMC4336329 (PLoS ONE, 2015).
Screen size: about 310,000 compounds; about 14,000 (4.5%) showed an effect of 50% or more. The effect is printed as a negative number. This is one part of the list.

These compounds were tested against human ether-à-go-go-related gene (hERG) potassium channel (human, UniProt Q12809) (assay: primary screen, population patch clamp on CHO cells stably expressing hERG).
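Note: peak tail current of the secondary pulse compared with the same well before compound.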

Chain of human ether-à-go-go-related gene (hERG) potassium channel (Q12809 whole entry, looked up): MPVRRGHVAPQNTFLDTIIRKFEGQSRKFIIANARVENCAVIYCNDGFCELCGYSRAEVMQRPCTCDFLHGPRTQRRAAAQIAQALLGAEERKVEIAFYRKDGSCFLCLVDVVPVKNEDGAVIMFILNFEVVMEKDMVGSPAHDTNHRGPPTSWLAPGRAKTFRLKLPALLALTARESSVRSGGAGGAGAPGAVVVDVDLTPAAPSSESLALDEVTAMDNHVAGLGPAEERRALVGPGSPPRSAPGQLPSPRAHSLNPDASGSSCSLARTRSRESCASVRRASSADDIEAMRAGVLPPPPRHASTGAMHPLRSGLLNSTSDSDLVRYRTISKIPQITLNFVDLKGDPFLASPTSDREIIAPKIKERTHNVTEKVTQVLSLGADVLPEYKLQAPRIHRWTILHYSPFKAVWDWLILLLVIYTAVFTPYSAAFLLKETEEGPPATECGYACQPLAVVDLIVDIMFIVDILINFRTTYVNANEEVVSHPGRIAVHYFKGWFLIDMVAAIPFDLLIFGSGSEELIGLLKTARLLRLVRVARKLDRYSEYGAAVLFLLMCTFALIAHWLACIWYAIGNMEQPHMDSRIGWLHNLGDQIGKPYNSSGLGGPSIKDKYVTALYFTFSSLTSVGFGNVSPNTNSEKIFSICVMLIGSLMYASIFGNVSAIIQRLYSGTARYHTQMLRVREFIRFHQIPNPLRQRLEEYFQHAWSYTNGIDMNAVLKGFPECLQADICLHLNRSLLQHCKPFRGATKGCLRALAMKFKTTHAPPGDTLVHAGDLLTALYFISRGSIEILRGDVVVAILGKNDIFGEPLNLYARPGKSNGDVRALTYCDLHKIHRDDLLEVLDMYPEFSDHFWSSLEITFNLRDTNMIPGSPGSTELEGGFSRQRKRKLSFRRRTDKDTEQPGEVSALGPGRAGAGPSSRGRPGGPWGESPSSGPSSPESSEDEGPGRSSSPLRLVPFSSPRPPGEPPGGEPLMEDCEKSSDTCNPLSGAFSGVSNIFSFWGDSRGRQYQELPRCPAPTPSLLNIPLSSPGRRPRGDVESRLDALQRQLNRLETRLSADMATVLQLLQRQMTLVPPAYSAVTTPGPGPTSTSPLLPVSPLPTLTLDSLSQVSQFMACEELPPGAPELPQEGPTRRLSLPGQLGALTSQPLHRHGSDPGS

| Structure (SMILES) | hERG current change (%, negative = inhibition) at 10uM [%] |
| --- | --- |
| COc1ccccc1NS(=O)(=O)c1cc(NC(=O)c2ccco2)ccc1N1CCOCC1 | -7.06 |
| CN(C)CCCNc1ncnc2c1c(-c1ccccc1)cn2-c1ccccc1 | -64.4 |
| CCN1CCN(C(=O)c2ccc(CN(c3ccccc3)S(=O)(=O)c3ccccc3)cc2)CC1 | -43.2 |
| CCOc1ccc(NC(=O)CSc2nnc(-c3ccoc3C)n2CC2CCCO2)cc1 (centres unmarked) | -19.1 |
| COc1cccc(C(=O)NCc2ccc3c(c2)OCO3)c1OC | 16.3 |
| O=C(CCNC(=O)c1ccc(Br)cc1)Nc1ccccc1N1CCCCC1 | 10.7 |
| CC1(C)C2CC=C(/C=N/NC(=S)NCCc3ccccc3)C1C2 (centres unmarked) | 29.1 |
| CCC(=O)Nc1ccc(NC(=O)c2ccccc2Cl)nc1 | 9.2 |
| O=C(NCC(c1ccco1)N1CCN(c2ccccc2)CC1)c1ccc2c(c1)OCO2 (centres unmarked) | -5.86 |
| CC1CN(C2=NC(=O)/C(=C/c3ccncc3)S2)CC(C)O1 (centres unmarked) | -14.5 |
| COc1ccc(CCNC(=O)c2ccc(Cl)cc2Cl)cc1OC | 2.49 |
| O=C(CCS(=O)(=O)c1ccc(Br)s1)Nc1ccccc1Br | 15.3 |
| O=C(Nc1ccccc1)Nc1ccc2nnsc2c1 | 1.79 |
| CCOC(=O)CC1C(=O)NCCN1C(=O)c1cccc(C(F)(F)F)c1 (centres unmarked) | 11.4 |
| COc1ccc(NC(=O)CN2CCC(C)CC2)cc1 | -4.51 |
| Cc1cc(S(=O)(=O)N2CCN(C(=O)CCC(=O)N3CCOCC3)CC2)ccc1Br | -6.63 |
| CCc1cccc2c(=O)c(C(=O)NCCN3CCOCC3)c[nH]c12 | 12.3 |
| Cc1ccc(OCc2nc(-c3ccccc3)no2)c(C)c1 | 8.51 |
| O=C(CN1C2CCCC1CC(NC(=O)c1ccco1)C2)Nc1ccccc1C(F)(F)F (centres unmarked) | -5.35 |

| Structure (SMILES) | hERG current change (%, negative = inhibition) at 10uM [%] |
| --- | --- |
| Cc1ccc2c(c1)c1c(n2C)C(C(N)=O)CCC1 (centres unmarked) | -19.5 |
| CCOC(=O)CCn1c(=O)c2c(nc(Br)n2Cc2ccccc2)n(C)c1=O | -11.5 |
| CC12CN3CC(C)(CN(C1)C3c1ccco1)C2=O (centres unmarked) | -7.98 |
| CCc1c(O)nc(SCC(=O)NC(C)(C)C)n(-c2ccccc2)c1=O | 0.418 |
| Cc1nn(CC(=O)Nc2cccnc2)c(C)c1[N+](=O)[O-] | 13.9 |
| NS(=O)(=O)c1ccc(CCNC(=O)c2ccccc2OCc2ccc(F)cc2)cc1 | 4.16 |
| CC1(C(=O)Nc2nccs2)Cc2ccccc2C(=O)O1 (centres unmarked) | -7.82 |
| O=C(NCc1ccccc1)c1cccc(COc2cc(Cl)ccc2Cl)c1 | 6.82 |
| Cc1[nH]c(N=Nc2ccccc2)nc1N=Nc1ccccc1 | 16 |
| CCN(C(=O)COC(=O)c1ccc(Br)o1)C1CCCCC1 | 2.17 |
| C/C(=N/NC(=O)c1nnn(-c2nonc2N)c1-c1ccccc1)c1ccc2c(c1)OCO2 | 5.6 |
| CS(=O)(=O)Nc1ccc(S(=O)(=O)N2CCOCC2)cc1 | 3.15 |
| CCCCN(CC)C(=O)CN(C)S(=O)(=O)c1cccc2nsnc12 | 2.73 |
| CCOCCCNC(=O)C1CCN(C(=O)Nc2ccc(C)cc2)CC1 | -3.65 |
| COc1ccc(Cl)cc1N(CC(=O)N1CCCCC1)S(C)(=O)=O | 12.1 |
| O=C(Cn1c(=O)oc2cc(S(=O)(=O)N3CCCCC3)ccc21)N1CCCCC1 | 10.4 |
| N#Cc1c(C(F)(F)F)cc(=O)[nH]c1SCC(=O)O | 9.28 |
| C=CCn1c(SCC(=O)OC)nc2sc3c(c2c1=O)CCN(C)C3 | -7.94 |
| CC(C)Cc1nnc(NC(=O)CCC(=O)NCCc2ccccc2)s1 | -16 |

| Structure (SMILES) | hERG current change (%, negative = inhibition) at 10uM [%] |
| --- | --- |
| COc1ccc(N(C(=O)Cn2nnc(-c3ccccc3F)n2)C(C(=O)NCC2CCCO2)c2ccc(Cl)cc2)cc1 (centres unmarked) | 22.6 |
| N#Cc1nc(-c2cccs2)oc1NCc1ccccc1 | -1.31 |
| CSc1ccccc1C(=O)N1CCCC(CCC(=O)NCc2ccc(F)c(F)c2)C1 (centres unmarked) | -6.23 |
| CCCCSC(=O)Nc1ccccc1 | -0.628 |
| CC1CC(C)CN(C(=O)C2CCCN(S(=O)(=O)c3cnc[nH]3)C2)C1 (centres unmarked) | 7.94 |
| CC1CN(C(=O)c2ccc(NS(=O)(=O)c3ccc(F)cc3)cc2)CC(C)O1 (centres unmarked) | 3.67 |
| O=C(Nc1sc2c(c1C(=O)O)CCC2)c1ccccc1Cl | 27.4 |
| CCOc1ccccc1C(=O)N[C@H](C(=O)Nc1ccc(OC)c(S(=O)(=O)N2CCOCC2)c1)C(C)C | 1.48 |
| Cc1nc(SCCOc2ccccc2F)[nH]c(=O)c1Cc1ccccc1 | 46.9 |
| CSc1ccc2c(c1)C(N1CCN(C)CC1)Cc1ccc(F)cc1S2.O=C(O)/C=C\C(=O)O (centres unmarked) | -58.8 |
| CCOC(=O)CC1=C(C(=O)OCC)C(c2cc(OC)c(OC)cc2OC)C(C#N)=C(N)O1 (centres unmarked) | -0.565 |
| O=C(Nc1ccc2oc(-c3ccccc3Cl)nc2c1)c1ncn[nH]1 | 15.5 |
| O=C(Nc1cc(=O)[nH]c2ncnn12)c1ccco1 | 3.77 |
| Cc1cccc(C)c1OCCN1CCCC1 | 0.402 |
| COC(=O)[C@]1(CC(C)C)N[C@H](c2ccc(-c3ccc(Cl)c(Cl)c3)cc2)[C@@H]2C(=O)N(C)C(=O)[C@@H]21.O=C(O)C(F)(F)F | 5.2 |
| CCN1CCCC1CNCc1ccc(OCc2ccc(Cl)nc2)c(OC)c1.Cl (centres unmarked) | -39.1 |
| O=C(C1Cc2ccccc2CN1S(=O)(=O)c1cccs1)N1CCCCC1 (centres unmarked) | -13.4 |
| COc1ccc(OC)c(NC(=O)CC2C(=O)NCCN2C(=O)Nc2cccc(Cl)c2)c1 (centres unmarked) | 3.42 |
